# Some of the results follow.
# What was measured:
# Experiment in all cases: glycan array binding signal (z-score within array); higher = stronger binding
# Conditions in all cases: glycan notation: IUPAC condensed, linker removed
# [1] = molecular target: GlcNAc(b1-3)Gal(b1-4)GlcNAc(b1-3)Gal(b1-4)GlcNAc(b1-3)GalNAc
# Outline: (§1)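 The Consortium for Functional Glycomics database supplied 3228 glycan arrays, of which those lacking an available protein sequence were dropped. The binding signal, a within-array Z-score, was averaged across arrays of the same protein sequence and across linkers. Negative scores can be read as non-binding.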
# [2] = molecular target: GlcNAc(b1-3)Gal(b1-4)GlcNAc(b1-3)GalNAc
# Outline: as §1
# [3] = molecular target: GlcNAc(b1-3)Gal(b1-4)GlcNAc(b1-3)[GlcNAc(b1-3)Gal(b1-4)GlcNAc(b1-3)]GalNAc
# Outline: as §1
# [4] = molecular target: GlcNAc(b1-3)Gal(b1-4)GlcNAc(b1-6)[Gal(b1-3)]GalNAc
# Outline: as §1
# [5] = molecular target: GlcNAc(b1-3)Gal(b1-4)GlcNAc(b1-6)[GlcNAc(b1-3)Gal(b1-3)]GalNAc
# Outline: as §1
# [6] = molecular target: GlcNAc(b1-3)Gal(b1-4)GlcNAc(b1-6)[GlcNAc(b1-3)]Gal(b1-4)GlcNAc
# Outline: as §1
# GlcNAc(b1-3)GalNAc = molecular target: GlcNAc(b1-3)GalNAc
# Outline: as §1
# GlcNAc(b1-3)Man = molecular target: GlcNAc(b1-3)Man
# Outline: as §1
# [7] = molecular target: GlcNAc(b1-3)[GlcNAc(b1-4)][GlcNAc(b1-6)]GlcNAc
# Outline: as §1
# [8] = molecular target: GlcNAc(b1-3)[GlcNAc(b1-6)]Gal(b1-4)GlcNAc
# Outline: as §1
# [9] = molecular target: GlcNAc(b1-3)[GlcNAc(b1-6)]GalNAc
# Outline: as §1
# [10] = molecular target: GlcNAc(b1-4)Gal(b1-4)GlcNAc
# Outline: as §1
# GlcNAc(b1-4)GlcNAc = molecular target: GlcNAc(b1-4)GlcNAc
# Outline: as §1
# [11] = molecular target: GlcNAc(b1-4)GlcNAc(b1-4)GlcNAc
# Outline: as §1
# [12] = molecular target: GlcNAc(b1-4)GlcNAc(b1-4)GlcNAc(b1-4)GlcNAc(b1-4)GlcNAc
# Outline: as §1
# [13] = molecular target: GlcNAc(b1-4)GlcNAc(b1-4)GlcNAc(b1-4)GlcNAc(b1-4)GlcNAc(b1-4)GlcNAc
# Outline: as §1
# [14] = molecular target: GlcNAc(b1-4)[GlcNAc(b1-6)]GalNAc
# Outline: as §1
# [15] = molecular target: GlcNAc(b1-6)Gal(b1-4)GlcNAc
# Outline: as §1
# GlcNAc(b1-6)GalNAc = molecular target: GlcNAc(b1-6)GalNAc
# Outline: as §1
# [16] = molecular target: GlcNAc6S(b1-3)Gal(b1-4)GlcNAc
# Outline: as §1
# Kdn(a2-3)Gal(b1-3)GalNAc = molecular target: Kdn(a2-3)Gal(b1-3)GalNAc
# Outline: as §1
# Kdn(a2-3)Gal(b1-3)GlcNAc = molecular target: Kdn(a2-3)Gal(b1-3)GlcNAc
# Outline: as §1
# Kdn(a2-3)Gal(b1-4)Glc = molecular target: Kdn(a2-3)Gal(b1-4)Glc
# Outline: as §1
# Kdn(a2-3)Gal(b1-4)GlcNAc = molecular target: Kdn(a2-3)Gal(b1-4)GlcNAc
# Outline: as §1
# [17] = molecular target: Kdn(a2-3)Gal(b1-4)[Fuc(a1-3)]GlcNAc
# Outline: as §1
# Kdn(a2-6)Gal(b1-4)GlcNAc = molecular target: Kdn(a2-6)Gal(b1-4)GlcNAc
# Outline: as §1
# [18] = molecular target: Man(a1-2)Man(a1-2)Man(a1-3)Man
# Outline: as §1
# [19] = molecular target: Man(a1-2)Man(a1-2)Man(a1-6)[Man(a1-3)]Man
# Outline: as §1
# Man(a1-2)Man(a1-3)Man = molecular target: Man(a1-2)Man(a1-3)Man
# Outline: as §1
# [20] = molecular target: Man(a1-2)Man(a1-3)[Man(a1-2)Man(a1-6)]Man
# Outline: as §1
binder,measurement,setting,value
Epa10 (protein) MNEKIFRYLTLLFLFELARSLPVEDKLNIKKVFEKRAVDFTPFAHYPRPEGCSSPPNSVSVGLHMNLYNYPYLYVKPSTKGMFTNDTNSDADGETDGDSAGGIEGRAGQCWNPEYQDPNFPRFGYKQYGEFGASDNVNGDISWDHNEFTEGCKPVLAALPPGYNYPDEITFSNFTMVLSGYFKPKTSGVYKFELKADDFILFNFGAKNAFECCNREESIDNFGPYVAYAMWPNQADQELEVYLFEDSYYPLRLFYNNRDYHSKFKIGFYPPGQTTITFDFDGYLFMLDDTGNECRDSIRYRTVCDDKVVDDTTYSTRYSTSMVPGGGSDVITIYYIRMKCEEEDCLGQWDPINNVCYSPDDCADDGGYWNGQMCDQSCKLEGGIVNPDTGDCDKSCIESGGFLDENGNCDTTCRDDGGMLVEGQCDYQCKEAGGILVGDHCDTTCVDSGGKLNEDGTCDHSCRDQGGQLDENGECDTSCKDSGGMLIEGECDTSCKDEGGQLDDNNECINHCKDQGGIIDENGNCDTSCKDSGGKLDESGACDTSCRDDGGIIDENGNCNTTCRDDGGIIVGDHCDTSCRDAGGILIEDHCDTTCRDSGGKLNEDGTCDHSCRDQGGQLDENGKCDYSCKNGGGKLDEDGNCDMSCKENGGKLDENGDCDLSCKEDGGKLDGNGDCDYSCKEEGGVIDESGNCNTTCKDSGGQIIDGECNYGCIEVGGVVIDGECDTSCIDSGGILDGDGNCDRSCIESGGVLEDGACNTTCRDSGGQLNVDGTCDTSCRDDGGMLVEGQCDYQCKEAGGILEDGECVFPPTSSSTSETSSTTDQSSLQSDDSSMESSSTPMDSSTIESSSSEIITSESESESVPIASSSSEVMTSESESESIPILTSSSEIPIASSSSEIPVASSSSEIIIPESESESVPVASSSSEIPIASSSSEIPVASSSSEIPVASSSSEIIIPESESESIPIESTSSEAVSSRSESDSSYPTPTPTTTTITTWPNPIQPTTSNSSPIVSSSTETPGIAESSSRISDLESSRRTSILGDDRTRTRTTITSTITEDGQIITITTTVTGFVPEPTGETEGNGSDDENPENPIENNTDENEFLDPEFTDDIPDDPAGPEDNGNGPVNPEQGNDNDPVNLEDSGNNGAVNPEQAPVNDEDNGGNDPVNPEQDNNNGPANPGQDSTNGSGNSDQIDNNPPTPEENAGDGNSNGNDPADPSRRTSILGDERTRASPGGTSQPTGANGNVNGNSPGANVNGGGTGNSNNNNNNNNNNNNGNAPNGGDGSNGDANQGPSRRTSLLGDERTRAGQAAPTGGSSPDNGIAGDTSNNGGAIVSQQVDDGGAGSPRRTSILGDVRSRTTLNGEVLNFEGSGVRRAVAGNLALPLMMVGLVFNL,glycan array binding signal (z-score),[1],-0.241
same,glycan array binding signal (z-score),[2],-0.313
same,glycan array binding signal (z-score),[3],-0.284
same,glycan array binding signal (z-score),[4],1.14
same,glycan array binding signal (z-score),[5],-0.202
same,glycan array binding signal (z-score),[6],-0.312
same,glycan array binding signal (z-score),GlcNAc(b1-3)GalNAc,-0.266
same,glycan array binding signal (z-score),GlcNAc(b1-3)Man,-0.198
same,glycan array binding signal (z-score),[7],-0.265
same,glycan array binding signal (z-score),[8],-0.314
same,glycan array binding signal (z-score),[9],-0.259
same,glycan array binding signal (z-score),[10],-0.281
same,glycan array binding signal (z-score),GlcNAc(b1-4)GlcNAc,-0.26
same,glycan array binding signal (z-score),[11],-0.29
same,glycan array binding signal (z-score),[12],0.45
same,glycan array binding signal (z-score),[13],1.1
same,glycan array binding signal (z-score),[14],-0.297
same,glycan array binding signal (z-score),[15],-0.08
same,glycan array binding signal (z-score),GlcNAc(b1-6)GalNAc,-0.237
same,glycan array binding signal (z-score),[16],0.049
same,glycan array binding signal (z-score),Kdn(a2-3)Gal(b1-3)GalNAc,-0.21
same,glycan array binding signal (z-score),Kdn(a2-3)Gal(b1-3)GlcNAc,-0.209
same,glycan array binding signal (z-score),Kdn(a2-3)Gal(b1-4)Glc,-0.207
same,glycan array binding signal (z-score),Kdn(a2-3)Gal(b1-4)GlcNAc,-0.139
same,glycan array binding signal (z-score),[17],-0.168
same,glycan array binding signal (z-score),Kdn(a2-6)Gal(b1-4)GlcNAc,-0.238
same,glycan array binding signal (z-score),[18],-0.264
same,glycan array binding signal (z-score),[19],-0.264
same,glycan array binding signal (z-score),Man(a1-2)Man(a1-3)Man,-0.299
same,glycan array binding signal (z-score),[20],-0.247

# — the supplement of paper PMC8728848
